42 sequences from publication PMC7819943, “Rice protein-binding microarrays: a tool to detect cis-acting elements near promoter regions in rice” can be followed below.

Some of the results follow.

The target of this experiment is T1, OsWOX13 (Oryza sativa, UniProt Q5QMM3 1-267).
T1 sequence: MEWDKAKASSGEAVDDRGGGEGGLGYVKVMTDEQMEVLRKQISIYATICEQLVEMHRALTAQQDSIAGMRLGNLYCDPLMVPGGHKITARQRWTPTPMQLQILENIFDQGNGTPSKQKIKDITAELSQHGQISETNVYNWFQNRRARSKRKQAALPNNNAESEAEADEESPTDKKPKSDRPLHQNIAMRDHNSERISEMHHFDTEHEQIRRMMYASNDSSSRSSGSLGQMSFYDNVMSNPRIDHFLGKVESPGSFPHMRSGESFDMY
Briefly: protein-binding microarray (RPBM); PBS, 2% BSA, 51.3 ng/ul salmon testes DNA, 50 uM zinc acetate, 200 nM TF, 25 C, 1 h; high values mean tight binding. As to conditions: protein: recombinant; tags: N-terminal polyhistidine and DsRed monomer fusion (pET32a); label: CyDye5-dUTP incorporated in the synthesized complementary strand; 3' TTTTT single-stranded linker to array surface; dsDNA, one strand shown. The gist of the method: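 Per-feature fluorescence intensity (arbitrary units), read on an Axon 4000B scanner, is the binding signal. Transcription factors carrying an N-terminal polyhistidine tag and DsRed fusion were expressed in E. coli BL21-CodonPlus and purified on Ni–NTA. A custom Agilent array, made double-stranded by primer extension with Cy5-dUTP and blocked with 2% BSA, was incubated with 200 nM protein in PBS, 2% BSA, salmon testes DNA and 50 µM zinc acetate at 25 °C for 1 h and then washed.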
Turning to “AATCTAAACTCAATCAAGAACCGAATTTTAAAACCCCTTTCGGAGTCACCTAGTGCAG”, the binding signal was 8240 fluorescence intensity (a.u.). Regarding “CGTTTGCGATTGATTTCAACCCAAGCAACAATAATCTCGTCGGAGTCACCTAGTGCAG”, the binding signal is 9240 fluorescence intensity (a.u.). Consider “AACAAATTGGCAATTTTGGGTGCATAATATGCACACAAAACGGAGTCACCTAGTGCAG”, for which the binding signal is 15100 fluorescence intensity (a.u.).

As to “TAATATTTAATTGGTTAAACGGTAATGAGTAACCAAATTTCGGAGTCACCTAGTGCAG”, the binding signal is 15700 fluorescence intensity (a.u.). The result for “ATCTAGACACTTTCAGATTGAAAATTGTGTATATTTGTACCGGAGTCACCTAGTGCAG” reads 4990 fluorescence intensity (a.u.); that for “AGTAATAAATAAAACTTAATTAATTATTTTAATGGTTTTCCGGAGTCACCTAGTGCAG”, 15200 fluorescence intensity (a.u.); that for “AGGTTAATCAGCAGTCTACCTCACCTTCTATTTACAATTTCGGAGTCACCTAGTGCAG”, 4160 fluorescence intensity (a.u.).

Turning to “CACTAGTATTCAATCACCCAGTTCCAAGAATGCGTTACAGCGGAGTCACCTAGTGCAG”, the binding signal was 9460 fluorescence intensity (a.u.). Consider “CTCTGTAACTATATAATTTCGTGCCAGATCGAAACTATGTCGGAGTCACCTAGTGCAG”, for which the binding signal is 4040 fluorescence intensity (a.u.). In the case of “GATGAAATTGGTTTATAGCCTCTCGCTTAATGTTTTCTTTCGGAGTCACCTAGTGCAG”, the binding signal was 3240 fluorescence intensity (a.u.). For the sequence “TGTTAATTACATTGGCTAATCAAAATTACAGGGAGAGATTCGGAGTCACCTAGTGCAG”, the binding signal is 29600 fluorescence intensity (a.u.). Next, “AATTCAAATTTTATATAGTTCAATCAAACTCGGATGGAGACGGAGTCACCTAGTGCAG”: 3880 fluorescence intensity (a.u.); “GAGATTGTAGCGAATTGACAACCTGATGAAGGGATCGATCCGGAGTCACCTAGTGCAG”: 13600 fluorescence intensity (a.u.). For the sequence “AAAATAGATAATTTTGTATGGGTGCTAATTGCGCGGGCTACGGAGTCACCTAGTGCAG”, the binding signal was 24500 fluorescence intensity (a.u.). In the case of “CAGGTGACTAATTTGAATGCCGGGGATTATCAGCGCGTGACGGAGTCACCTAGTGCAG”, the binding signal was 23100 fluorescence intensity (a.u.).

On to “TACAAATTTTGAGTGGACTGTACAAATTTTGCCTTCCAAACGGAGTCACCTAGTGCAG”, for which the binding signal is 3440 fluorescence intensity (a.u.). Next, “TTTAATTGATCCAAATATGGTCGCGATAATATTTTATTTACGGAGTCACCTAGTGCAG”: 28500 fluorescence intensity (a.u.); “CGCTAAAATTAAAAGTTTGATTGAAATTAGAACGATGTAACGGAGTCACCTAGTGCAG”: 30300 fluorescence intensity (a.u.); “TGTCTCGTTTAATTGGGCCCGGAAACTAAGCCCAAGTGGACGGAGTCACCTAGTGCAG”: 4060 fluorescence intensity (a.u.). The result for “ACAAGATCTCAGTTGGTTATATTCAAGTGAAAGAAAATATCGGAGTCACCTAGTGCAG” reads 9670 fluorescence intensity (a.u.); that for “AACGTGTTAATAGAAATTAAGGTAGAATCTGCATATAATCCGGAGTCACCTAGTGCAG”, 4350 fluorescence intensity (a.u.); that for “GTGTTGAATGATAGACTGATAGCTGCGTGCAGCCTCTGAGCGGAGTCACCTAGTGCAG”, 23400 fluorescence intensity (a.u.). The result for “CTGGTTCATTTATGCATAATTAGACCTTATCTGGGTCTTACGGAGTCACCTAGTGCAG” reads 6520 fluorescence intensity (a.u.); that for “GTTAATTTTCTCTACCCTTTATTGTTCTGCTGCCTTGTGGCGGAGTCACCTAGTGCAG”, 20800 fluorescence intensity (a.u.). Turning to “TACTCAATCGCAGCAAATCAATCCACCATCCATCCACGTCCGGAGTCACCTAGTGCAG”, the binding signal was 4630 fluorescence intensity (a.u.). Next, “TTTGTCCATTCATTCATTCTCAATCATTCATGGTGATAATCGGAGTCACCTAGTGCAG”: 5560 fluorescence intensity (a.u.). Next, “GATTAAATTGATCTTAGAACAAACTAAATACTACGAGGTCCGGAGTCACCTAGTGCAG”: 37200 fluorescence intensity (a.u.). “GTTCTAATTAGTTGCTATATATTGAGATAGAGGGAGTGGTCGGAGTCACCTAGTGCAG”: the binding signal was 49500 fluorescence intensity (a.u.).

Take “AGGATGATTATATATGATAATCAGTTTAGAAATTCTGGTTCGGAGTCACCTAGTGCAG”: the binding signal is 44500 fluorescence intensity (a.u.). For the sequence “TTGATGTGACAACAAATTGAAATATACACTTCCATCCAAACGGAGTCACCTAGTGCAG”, the binding signal was 4140 fluorescence intensity (a.u.). Next, “CCCAAAATCATCAATGCAAATTAATCTCCCCTCTTCTTCTCGGAGTCACCTAGTGCAG”: 7150 fluorescence intensity (a.u.); “GAGAGACGGTTTAATCAAGGAGCAGTTGATGGGAGAGGCGCGGAGTCACCTAGTGCAG”: 4550 fluorescence intensity (a.u.); “ATTAATCATGTAAAATTGACGTTACTAGATTTATTATTACCGGAGTCACCTAGTGCAG”: 28300 fluorescence intensity (a.u.). The result for “AGCTGATTAAGGTCCTCCAAGCGAAATCGGAGTCGAGTCTCGGAGTCACCTAGTGCAG” reads 5690 fluorescence intensity (a.u.); that for “TTATAATATATCAATCCGAGTCCTTCATCATTTCTCCATTCGGAGTCACCTAGTGCAG”, 6540 fluorescence intensity (a.u.). Regarding “GTCAGTTTTATTGATGATTATAGTAAATTTACTTGGGTTTCGGAGTCACCTAGTGCAG”, the binding signal was 10400 fluorescence intensity (a.u.). Next, “TTTCGTCATTATTTATTTTATTGATCTTTAATTAGTACATCGGAGTCACCTAGTGCAG”: 7290 fluorescence intensity (a.u.). Consider “AACCTAATTACTCATTGTACCCTTTGCATTAATCATGCATCGGAGTCACCTAGTGCAG”, for which the binding signal is 20100 fluorescence intensity (a.u.). The result for “GCTTGACGAGCAGGCAGCAAGAGGATTCGTTCTTCTTCTGCGGAGTCACCTAGTGCAG” reads 6260 fluorescence intensity (a.u.); that for “GATTAGATTGATCATTGATCGATCAGTGCCATTAATTGAGCGGAGTCACCTAGTGCAG”, 30900 fluorescence intensity (a.u.). Next, “CGATTGATGTACCAGTAACAAAGGATTATTACTGTTTACCCGGAGTCACCTAGTGCAG”: 5280 fluorescence intensity (a.u.); “ATGAACATGCAATGATTTATTAACAAATCAAAAGCTAGGACGGAGTCACCTAGTGCAG”: 17700 fluorescence intensity (a.u.).
